Reference: the supplement of paper PMC8007513
Counter-ions that a name gives are not always drawn. ± gives the standard error. The whole screen tested about 1,300 compounds, of which about 75 (6%) showed an effect of 50% or more. The list shows a part of the results.

Tested on: Trichoderma virens ATCC 9645
Assay: growth yield (OD600) relative to untreated control; higher = less growth inhibition
Conditions: compound concentration: 100 uM
In short: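 Spores of Trichoderma virens ATCC 9645, taken from potato dextrose agar plates grown for 7 days, were suspended at 15,000 spores ml^−1 in potato dextrose broth. In 96-well plates, 100 μl aliquots held library compounds at 100 μM final, either alone or together with a biocide at 200 ng ml^−1, and were grown at 30 °C. A BioTek EL800 read OD600 at 40 h and 72 h. Growth values are given relative to the control lacking both agents and are means of duplicate screens.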

Structure (SMILES) | growth yield (40 h) [%] | growth yield (72 h) [%]
O=C(O)CCCC[C@@H]1SC[C@@H]2NC(=O)N[C@@H]21 [Biotin] | 95.6 | 98.2
COCC(=O)Nc1c(I)c(C(=O)NCC(O)CO)c(I)c(C(=O)N(C)CC(O)CO)c1I (configuration not stated) [Iopromide] | 98.8 ± 3.2 | 95.5 ± 1.1
CC1COc2c(N3CCN(C)CC3)c(F)cc3c(=O)c(C(=O)O)cn1c23 (configuration not stated) [Ofloxacin] | 95.3 ± 0.95 | 95.9 ± 1.7
C[C@H](CCC(=O)O)[C@H]1CC[C@H]2[C@@H]3CC[C@@H]4C[C@H](O)CC[C@]4(C)[C@H]3CC[C@]12C [Lithocholic acid] | 104 ± 14 | 96.4 ± 9.8
CC(=O)SCC(Cc1ccccc1)C(=O)NCC(=O)OCc1ccccc1 (configuration not stated) [Racecadotril] | 105 ± 2.9 | 105 ± 2.4
COC(=O)C1=C(C)NC(C)=C(C(=O)OC(C)C)C1c1cccc2nonc12 (configuration not stated) [Isradipine] | 108 ± 6.5 | 101 ± 2.6
CN1CCC(OC(c2ccccc2)c2ccccc2)CC1 [Diphenylpyraline hydrochloride] | 94.2 ± 4 | 93.3 ± 1.5
O=C(Oc1cccc2cccnc12)c1ccccc1 [Benzoxiquine] | 57.3 ± 2.7 | 66.9 ± 2.3
Clc1ccc(Nc2nnc(Cc3ccncc3)c3ccccc23)cc1 [Vatalanib] | 91.3 ± 4.3 | 94.7 ± 6.4
CN(C/C=C/C#CC(C)(C)C)Cc1cccc2ccccc12 [Terbinafine] | 2.7 ± 0.16 | 2.52
O=c1[nH]cnc2c1ncn2[C@H]1CC[C@@H](CO)O1 [Didanosine] | 61.95 ± 0.32 | 57.58 ± 0.32
Fc1ccc([C@@H]2CCNC[C@H]2COc2ccc3c(c2)OCO3)cc1 [Paroxetine Hydrochloride] | 91.7 ± 3 | 101 ± 3.6
Nc1nc(O)c2ncn(CCC(CO)CO)c2n1 [Penciclovir] | 100 ± 1.9 | 101.6 ± 0.73
NC(CO)C(=O)NNCc1ccc(O)c(O)c1O (configuration not stated) [Benserazide hydrochloride] | 85.3 ± 3.3 | 80.3 ± 5.7
CN(C)CCCN1c2ccccc2CCc2ccccc21 [Imipramine hydrochloride] | 97.2 ± 3.8 | 97.3 ± 3.6
C[C@H]1COc2c(N3CCN(C)CC3)c(F)cc3c(=O)c(C(=O)O)cn1c23 [Levofloxacin] | 99.4 ± 5.7 | 96.6 ± 3.9
NCCC[C@H](N)CC(=O)N[C@H]1CNC(=O)[C@H]([C@H]2C[C@H](O)NC(N)=N2)NC(=O)/C(=C/NC(N)=O)NC(=O)[C@H](CO)NC(=O)[C@H](CO)NC1=O [Viomycin sulfate] | 95.5 ± 3 | 87.6 ± 0.94
O=C1c2cccc3c2[C@H](CCC3)CN1[C@@H]1CN2CCC1CC2 [Palonosetron hydrochloride] | 103 ± 6 | 99 ± 4.2
NCC[C@H](O)C(=O)N[C@@H]1C[C@H](N)[C@@H](O[C@H]2O[C@H](CN)[C@@H](O)[C@H](O)[C@H]2O)[C@H](O)[C@H]1O[C@H]1O[C@H](CO)[C@@H](O)[C@H](N)[C@H]1O [Amikacin hydrate] | 99.3 ± 3.3 | 100 ± 2.9
CC(C)CN(C[C@@H](O)[C@H](Cc1ccccc1)NC(=O)O[C@H]1CO[C@H]2OCC[C@H]21)S(=O)(=O)c1ccc(N)cc1 [Darunavir] | 108 ± 1.8 | 111 ± 2.6
NC1CCN(c2nc3c(cc2F)c(=O)c(C(=O)O)cn3-c2ccc(F)cc2F)C1 (configuration not stated) [Tosufloxacin hydrochloride] | 95.9 ± 11 | 94.7 ± 11

Structure (SMILES) | growth yield (40 h) [%] | growth yield (72 h) [%]
COC(=O)Nc1nc2cc([S+]([O-])c3ccccc3)ccc2[nH]1 (configuration not stated) [Oxfendazol] | 98.16 ± 0.64 | 98.17 ± 0.42
COc1ccccc1OCC(O)COC(N)=O (configuration not stated) [Methocarbamol] | 104 ± 2.1 | 106 ± 1.1
Nc1ccn([C@@H]2CS[C@H](CO)O2)c(=O)n1 [Lamivudine] | 103.7 ± 0.16 | 101 ± 1.9
Cc1cc(N)c2ccccc2[n+]1CCCCCCCCCC[n+]1c(C)cc(N)c2ccccc21 [Dequalinium dichloride] | 2.54 ± 1.6 | 2.2 ± 1.4
CO/N=C(\C(=O)N[C@@H]1C(=O)N2C(C(=O)OC(C)OC(C)=O)=C(COC(N)=O)CS[C@H]12)c1ccco1 (some centres not stated) [Cefuroxime axetil] | 97.05 ± 0.16 | 96.5 ± 1.7
COc1c(N2CCNC(C)C2)c(F)cc2c(=O)c(C(=O)O)cn(C3CC3)c12 (configuration not stated) [Gatifloxacin] | 95.3 ± 0.95 | 94.4 ± 3.4
O=C(c1ccccc1)c1ccc2n1CCC2C(=O)O (configuration not stated) [Ketorolac tromethamine] | 94 ± 2.2 | 89.8 ± 2.1
CCOC(=O)[C@@](C)(N)Cc1ccc(O)c(O)c1 [Methyldopate hydrochloride] | 104 ± 5.2 | 97.85 ± 0.94
CN1Cc2c(N)cccc2C(c2ccccc2)C1 (configuration not stated) [Nomifensine maleate] | 99.8 ± 5.7 | 102 ± 4
CC(C)(O)c1ccccc1CC[C@@H](SCC1(CC(=O)O)CC1)c1cccc(/C=C/c2ccc3ccc(Cl)cc3n2)c1 [Montelukast] | 114 ± 2.1 | 108 ± 2.4
c1ccc(CNc2ncnc3nc[nH]c23)cc1 [Aminopurine, 6-benzyl] | 107 ± 1.4 | 107 ± 1.8
C=CCSCC1Nc2cc(Cl)c(S(N)(=O)=O)cc2S(=O)(=O)N1 (configuration not stated) [Althiazide] | 102 ± 2.2 | 97.4 ± 1.8
c1ccc(CN(CC2=NCCN2)c2ccccc2)cc1 [Antazoline hydrochloride] | 99.12 ± 0.95 | 101.3 ± 0.42
CN(C)CC/C=C1/c2ccccc2COc2ccc(CC(=O)O)cc21 [Olopatadine hydrochloride] | 103.9 ± 0.32 | 102.8 ± 0.42
CC(C(=O)O)c1ccc(C(=O)c2ccccc2)s1 (configuration not stated) [Tiaprofenic acid] | 93.88 ± 0.79 | 87.4 ± 1.4
CC(=O)N(CC(O)CN(C(C)=O)c1c(I)c(C(=O)NCC(O)CO)c(I)c(C(=O)NCC(O)CO)c1I)c1c(I)c(C(=O)NCC(O)CO)c(I)c(C(=O)NCC(O)CO)c1I (configuration not stated) [Iodixanol] | 99.4 ± 2.5 | 96.8 ± 0.94
N=C(N)NCCN1CCCCCCC1 [Guanethidine sulfate] | 99.6 ± 1.1 | 100.79 ± 0.1
C#C[C@]1(O)CC[C@H]2[C@@H]3CCC4=CC(=O)CC[C@@H]4[C@H]3CC[C@@]21CC [Norgestrel-(-)-D] | 101 ± 2.1 | 96.28 ± 0.63
CC(CN(C)C)CN1c2ccccc2Sc2ccccc21 (configuration not stated) [Trimeprazine tartrate] | 87.5 ± 2.4 | 96.9 ± 1.9
CC1(C)[C@@H](OC(=O)CCC(=O)O)CC[C@]2(C)[C@H]3C(=O)C=C4[C@@H]5C[C@@](C)(C(=O)O)CC[C@]5(C)CC[C@@]4(C)[C@]3(C)CC[C@@H]12 [Carbenoxolone disodium salt] | 95 ± 4.1 | 94.6 ± 2.1
